In ChEMBL document CHEMBL5661985, “In silico design of novel probes for the atypical opioid receptor MRGPRX2” (Nat Chem Biol, 2017):
Activity calls are given as the source filed them. The calls are words filed in the database; no cut-off is given here. Where a SMILES comes first, the peptide text is derived from it. [ ]: non-standard residue; d: D form. dPhe(4-Cl) = N[C@H](Cc1ccc(Cl)cc1)C(=O)O; d2Nal = N[C@H](Cc1ccc2ccccc2c1)C(=O)O; dCit = NC(=O)NCCC[C@@H](N)C(=O)O; d3Pal = N[C@H](Cc1cccnc1)C(=O)O

Assays:
[1] = target: T1, Mas-related G-protein coupled receptor member X2 (Homo sapiens) (UniProt Q96LB1); experiment: Agonist activity at N-terminal Flag-tagged human MRGPRX2 receptor expressed in tetracycline-induced FLP-IN/T-REX 293 cells assessed as increase in intracellular calcium release up to 100 uM by FLIPR assay; type: functional, cell-based
T1 sequence (whole entry): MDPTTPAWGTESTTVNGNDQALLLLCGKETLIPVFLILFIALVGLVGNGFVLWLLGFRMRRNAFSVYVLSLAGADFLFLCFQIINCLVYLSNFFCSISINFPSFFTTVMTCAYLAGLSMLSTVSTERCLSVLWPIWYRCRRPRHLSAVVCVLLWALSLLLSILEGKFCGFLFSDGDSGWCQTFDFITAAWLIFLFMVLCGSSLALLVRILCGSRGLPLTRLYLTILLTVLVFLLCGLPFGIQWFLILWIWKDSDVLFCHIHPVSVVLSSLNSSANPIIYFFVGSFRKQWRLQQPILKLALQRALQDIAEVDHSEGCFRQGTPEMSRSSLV
How it was run: (§1)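 FLIPR calcium: FLP-IN/T-REX HEK-293-T stable line with N-terminal FLAG codon-optimized receptor, induced 24 h with 1 μg/mL tetracycline in 1% dialyzed FBS (uninduced cells as control); FLIPR calcium dye plus 2.5 mM probenecid 1 h 37°C; 10 s baseline, then drug in HBSS/20 mM HEPES/probenecid pH 7.4, 16-point curve 10 μM to 0.003 nM; fluorescence 120 s; fold over basal, n=3 triplicate.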

[2] = target: T2, Mas-related G-protein coupled receptor member X2 (Homo sapiens, UniProt Q96LB1); experiment: Agonist activity at MRGPRX2 (unknown origin) expressed in HTLA cells assessed as induction of beta-arrestin 2 recruitment incubated for 18 to 24 hrs by PRESTO-Tango assay; type: functional, cell-based
T2 sequence (Q96LB1 whole entry): T1 sequence (whole entry)

[3] = target: T2, Mas-related G-protein coupled receptor member X2; experiment: Agonist activity at N-terminal Flag-tagged human MRGPRX2 receptor expressed in tetracycline-induced FLP-IN/T-REX 293 cells assessed as increase in intracellular calcium release by FLIPR assay; type: functional, cell-based
[4] = target: T1, Mas-related G-protein coupled receptor member X2 (Homo sapiens); experiment: Agonist activity at N-terminal Flag-tagged human MRGPRX2 receptor expressed in tetracycline-induced FLP-IN/T-REX 293 cells assessed as increase in intracellular calcium release 0.003 to 100000 nM by FLIPR assay; type: functional, cell-based; conditions: dose 0.003-100000 nM; how it was run: as §1
[5] = target: T1, Mas-related G-protein coupled receptor member X2 (Homo sapiens); experiment: Agonist activity at MRGPRX2 receptor in human LAD2 cells assessed as increase in intracellular calcium release by FLIPR assay; type: functional, cell-based
How it was run: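 LAD2 human mast cells seeded 50,000/well in Tyrode's buffer with calcium dye, 1 h before drug; 10 s baseline, drug added, fluorescence followed 120 s; expressed as fold calcium release over baseline; n=3 in triplicate.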

[6] = target: T1, Mas-related G-protein coupled receptor member X2 (Homo sapiens); experiment: Antagonist activity at MRGPRX2 (unknown origin) expressed in HTLA cells assessed as reduction in (+/-)-TAN-67 induced beta-arrestin 2 recruitment at 30 uM incubated for 18 to 24 hrs by PRESTO-Tango assay; type: functional, cell-based; conditions: time 18-24 hrs
[7] = target: T1, Mas-related G-protein coupled receptor member X2 (Homo sapiens); experiment: Agonist activity at MRGPRX2 receptor in human LAD2 cells assessed as increase in degranulation incubated for 30 mins by beta-hexosaminidase assay; type: functional, cell-based; conditions: filed as agonist
How it was run: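 β-Hexosaminidase release: LAD2 cells in fresh medium 18 h, washed in Tyrode's buffer pH 7.4, 10,000 cells/well; drug (single concentration or 8-point curve) added in triplicate, 30 min 37°C; supernatant and Triton X-100 lysate each reacted with NAG in citrate pH 4.5 for 90 min 37°C, stopped with carbonate pH 10, A405; % release = released/total ×100, minus vehicle.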

HTLA [8] = experiment: Agonist activity at MRGPRX2 D184E mutant (unknown origin) expressed in HTLA cells assessed as induction of beta-arrestin 2 recruitment incubated for 18 to 24 hrs by PRESTO-Tango assay; type: cell-based; conditions: Homo sapiens, time 18-24 hrs
How it was run: (§2)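 β-arrestin2 recruitment by PRESTO-Tango: HTLA cells transiently transfected (calcium phosphate) with codon-optimized MRGPRX2-Tango (WT or point mutant) or MRGPRB2-Tango, plated next day 20,000 cells/well on poly-L-lysine; drug in HBSS/20 mM HEPES/0.3% BSA pH 7.4 for 18–24 h; Bright-Glo luminescence (RLU); curves n=3 in triplicate, mutants n=4 in triplicate.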

HTLA [9] = experiment: Agonist activity at MRGPRX2 E164D mutant (unknown origin) expressed in HTLA cells assessed as induction of beta-arrestin 2 recruitment incubated for 18 to 24 hrs by PRESTO-Tango assay; type: cell-based; conditions: Homo sapiens, filed as agonist, time 18-24 hrs; how it was run: as §2
[10] = target: T1, Mas-related G-protein coupled receptor member X2 (Homo sapiens); experiment: Agonist activity at N-terminal Flag-tagged human MRGPRX2 receptor expressed in HEK-T cells assessed as increase in intracellular calcium release by FLIPR assay; type: functional, cell-based; conditions: HEK-T cell; how it was run: as §1
[11] = target: T1, Mas-related G-protein coupled receptor member X2 (Homo sapiens); experiment: Agonist activity at N-terminal Flag-tagged human MRGPRX2 receptor expressed in tetracycline-induced HEK-T cells assessed as increase in intracellular calcium release by FLIPR assay; type: functional, cell-based; conditions: HEK-T cell, filed as agonist; how it was run: as §1
[12] = target: T3, Kappa-type opioid receptor (Homo sapiens, UniProt P41145); experiment: Agonist activity at KOR (unknown origin) by Glo sensor assay; type: functional
[13] = target: T3, Kappa-type opioid receptor; experiment: Displacement of [3H]-Diprenorphine from KOR (unknown origin)
Mu-type opioid receptor = Mu-type opioid receptor (Homo sapiens, UniProt P35372); experiment: Displacement of [3H]-DAMGO from MOR (unknown origin)
[14] = target: Delta-type opioid receptor (Homo sapiens, UniProt P41143); experiment: Displacement of [3H]-Naltrindole from DOR (unknown origin)
UniProt P41143, sequence (P41143 whole entry): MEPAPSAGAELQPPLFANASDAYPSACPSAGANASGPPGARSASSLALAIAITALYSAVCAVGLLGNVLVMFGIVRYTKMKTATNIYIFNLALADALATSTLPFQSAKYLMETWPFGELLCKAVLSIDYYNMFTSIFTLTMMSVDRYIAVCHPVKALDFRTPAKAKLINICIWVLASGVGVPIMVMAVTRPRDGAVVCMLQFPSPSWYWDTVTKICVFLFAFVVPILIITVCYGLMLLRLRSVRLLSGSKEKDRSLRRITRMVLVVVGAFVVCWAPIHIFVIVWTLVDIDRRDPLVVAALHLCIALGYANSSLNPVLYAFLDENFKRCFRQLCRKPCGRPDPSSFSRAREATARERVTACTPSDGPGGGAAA

T3 sequence (P41145 whole entry): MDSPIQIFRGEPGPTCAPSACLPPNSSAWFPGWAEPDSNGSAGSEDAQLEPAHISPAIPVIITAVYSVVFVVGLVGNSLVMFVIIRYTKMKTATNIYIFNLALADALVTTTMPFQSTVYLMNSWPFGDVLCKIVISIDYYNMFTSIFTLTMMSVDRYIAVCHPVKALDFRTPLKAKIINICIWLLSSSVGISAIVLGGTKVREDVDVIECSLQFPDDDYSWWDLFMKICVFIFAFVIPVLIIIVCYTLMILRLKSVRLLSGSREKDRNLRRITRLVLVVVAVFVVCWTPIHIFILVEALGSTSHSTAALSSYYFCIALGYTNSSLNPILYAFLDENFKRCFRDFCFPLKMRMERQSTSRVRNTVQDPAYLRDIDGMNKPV
UniProt P35372, sequence (P35372 whole entry): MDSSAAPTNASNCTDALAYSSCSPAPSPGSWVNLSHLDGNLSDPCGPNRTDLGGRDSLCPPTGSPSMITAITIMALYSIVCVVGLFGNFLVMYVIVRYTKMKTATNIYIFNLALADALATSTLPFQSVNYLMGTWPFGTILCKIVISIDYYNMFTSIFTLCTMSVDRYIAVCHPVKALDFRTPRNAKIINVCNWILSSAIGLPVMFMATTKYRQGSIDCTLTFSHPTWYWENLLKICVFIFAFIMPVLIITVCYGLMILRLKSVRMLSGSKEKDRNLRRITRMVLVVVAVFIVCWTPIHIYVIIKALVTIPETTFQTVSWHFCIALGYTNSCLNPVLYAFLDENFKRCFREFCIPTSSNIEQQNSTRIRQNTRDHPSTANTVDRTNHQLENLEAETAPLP

C[C@H]1COc2c(N3CCN(C)CC3)c(F)cc3c(=O)c(C(=O)O)cn1c23 [LEVOFLOXACIN ANHYDROUS]
Activity [1]: inactive
EC50 ([2]; read-out: pEC50 (converted)): > 31.6 µM
EC50 ([3]; read-out: pEC50 (converted)): > 31.6 µM

COc1ccc(CC2c3cc(OC)c(OC)cc3CC[N+]2(C)CCC(=O)OCCCCCOC(=O)CC[N+]2(C)CCc3cc(OC)c(OC)cc3C2Cc2ccc(OC)c(OC)c2)cc1OC (stereo not drawn)
Activity [1]: inactive
EC50 ([2]; read-out: pEC50 (converted)): > 31.6 µM
EC50 ([3]; read-out: pEC50 (converted)): > 31.6 µM

COC1=CC=C2[C@@H]3Cc4ccc(OC)c5c4[C@@]2(CCN3C)[C@H]1O5
EC50 ([3]; read-out: pEC50 (converted)): 70.8 µM

CC(C)C[C@H](NC(=O)[C@H](Cc1ccccc1)NC(=O)CNC(=O)CNC(=O)[C@@H](N)Cc1ccc(O)cc1)C(=O)N[C@@H](CCCN=C(N)N)C(=O)N[C@@H](CCCN=C(N)N)C(=O)O
Activity [4]: inactive

C[C@@H]1[C@@H]2Cc3ccc(O)cc3[C@@]1(C)CCN2CC1CC1
Activity [1]: inactive

C=CCN1C[C@H](C)N([C@H](c2ccc(C(=O)N(CC)CC)cc2)c2cccc(O)c2)C[C@H]1C
Activity [5]: inactive

COc1ccc2c3c1O[C@H]1[C@@H](O[C@@H]4O[C@H](C(=O)O)[C@@H](O)[C@H](O)[C@H]4O)C=C[C@H]4[C@@H](C2)N(C)CC[C@@]341
EC50 ([2]; read-out: pEC50 (converted)): 43.7 µM

H-KWDNQ-OH
Activity [4]: inactive

CN1CC[C@]23Cc4nc5ccccc5cc4C[C@@]2(O)[C@H]1Cc1ccc(O)cc13
EC50 ([2]; read-out: pEC50 (converted)): 18.6 µM

CN1CC[C@]23c4c5ccc(O[C@@H]6O[C@H](C(=O)O)[C@@H](O)[C@H](O)[C@H]6O)c4O[C@@]2(O)[C@@H](O)C=C[C@H]3[C@H]1C5
EC50 ([2]; read-out: EC50): 28 µM

CCN(CC)C(=O)c1ccc(C2=CC3(CCNCC3)Oc3cccc(O)c32)cc1 [ADL-5859]
EC50 ([2]; read-out: pEC50 (converted)): 5.13 µM

COc1ccc2c3c1O[C@@H]1[C@H](O)C=C[C@@H]4[C@H](C2)N(C)CC[C@]341
EC50 ([2]; read-out: pEC50 (converted)): 5.5 µM
EC50 ([3]; read-out: pEC50 (converted)): 13.8 µM

CC(=O)N[C@H](Cc1ccc2ccccc2c1)C(=O)N[C@H](Cc1ccc(Cl)cc1)C(=O)N[C@H](Cc1cccnc1)C(=O)N[C@@H](CO)C(=O)N[C@@H](Cc1ccc(O)cc1)C(=O)N[C@H](CCCNC(N)=O)C(=O)N[C@@H](CC(C)C)C(=O)N[C@@H](CCCNC(=N)N)C(=O)N1CCC[C@H]1C(=O)N[C@H](C)C(N)=O [CETRORELIX] (Ac-[d2Nal][dPhe(4-Cl)][d3Pal]SY[dCit]LRP[dA]-NH2)
EC50 ([2]; read-out: pEC50 (converted)): 0.813 µM
EC50 ([3]; read-out: pEC50 (converted)): 0.617 µM

O=C1CC[C@@]2(O)[C@H]3Cc4ccc(O)c5c4[C@@]2(CCN3CC2CC2)[C@H]1O5
Activity [1]: inactive
Activity [6]: inactive

CN1CC[C@@]23c4c5ccc(O)c4O[C@@H]2[C@H](O)C=C[C@@H]3[C@@H]1C5
EC50 ([2]; read-out: pEC50 (converted)): 3.39 µM
Activity ([5]; filed as agonist): Active
Activity [7]: Active
EC50 ([3]; read-out: pEC50 (converted)): 5.01 µM
Activity (HTLA [8]): inactive
Activity (HTLA [9]): Active

COC1=C[C@@H]2[C@@H]3Cc4ccc(OC)c(O)c4[C@]2(CCN3C)CC1=O [SINOMENINE]
EC50 ([2]; read-out: pEC50 (converted)): 5.37 µM
Activity [10]: inactive
EC50 ([3]; read-out: pEC50 (converted)): 3.98 µM
Activity [11]: Active

C[C@H]1[C@H]2Cc3ccc(O)cc3C1(C)CCN2C
EC50 ([2]; read-out: pEC50 (converted)): 19.1 µM
EC50 ([3]; read-out: pEC50 (converted)): 15.1 µM

H-YGGFLR-OH
EC50 [12]: 0.137 µM
Activity [4]: inactive

COc1ccc2c(c1)[C@]13CCCC[C@@H]1[C@H](C2)N(C)CC3 [DEXTROMETHORPHAN]
EC50 ([2]; read-out: pEC50 (converted)): 3.24 µM
Activity [10]: inactive
EC50 ([3]; read-out: pEC50 (converted)): 5.89 µM
Activity [11]: Active

CN1CC[C@]23CCCC[C@H]2[C@H]1Cc1ccc(O)cc13 [LEVORPHANOL]
EC50 ([2]; read-out: EC50): 24 µM
EC50 ([2]; read-out: pEC50 (converted)): 22.4 µM
EC50 ([3]; read-out: EC50): 14 µM

C=CC[N+]1([C@H]2C[C@H]3[C@@H]4CC[C@H]5C[C@H](O)[C@@H](N6CCOCC6)C[C@]5(C)[C@H]4CC[C@]3(C)[C@H]2OC(C)=O)CCCC1 [ROCURONIUM]
Activity [1]: inactive
EC50 ([2]; read-out: pEC50 (converted)): > 31.6 µM
EC50 ([3]; read-out: pEC50 (converted)): > 31.6 µM

Oc1ccc2c3c1O[C@H]1c4[nH]c5ccccc5c4C[C@@]4(O)[C@@H](C2)N(CC2CC2)CC[C@]314
Activity [6]: inactive

NC(N)=NCCC[C@@H](N)C(=O)N[C@@H](CCCN=C(N)N)C(=O)N1CCC[C@H]1C(=O)N1C[C@H](O)C[C@H]1C(=O)NCC(=O)N[C@@H](Cc1cccs1)C(=O)N[C@@H](CO)C(=O)N1Cc2ccccc2C[C@@H]1C(=O)N1[C@H](C(=O)N[C@@H](CCCN=C(N)N)C(=O)O)C[C@@H]2CCCC[C@@H]21 [ICATIBANT]
EC50 ([2]; read-out: pEC50 (converted)): > 31.6 µM
EC50 ([3]; read-out: pEC50 (converted)): 28.2 µM

Oc1ccc2c3c1O[C@H]1[C@H](N(CCCl)CCCl)CC[C@@]4(O)[C@@H](C2)N(CC2CC2)CC[C@]314
Activity [6]: inactive

H-YGGFLRRIR-OH
EC50 [12]: 0.000312 µM
EC50 ([3]; read-out: EC50): 10.6 µM

C[C@@H](NC(=O)[C@@H](N)Cc1ccc(O)cc1)C(=O)NCC(=O)N(C)[C@@H](Cc1ccccc1)C(=O)NCCO
Activity [5]: inactive

C[C@H]1[C@H]2Cc3ccc(O)cc3[C@]1(C)CCN2CC1CC1
Activity [5]: inactive

COc1c(N2C[C@@H]3CCCN[C@@H]3C2)c(F)cc2c(=O)c(C(=O)O)cn(C3CC3)c12 [MOXIFLOXACIN]
Activity [1]: inactive
EC50 ([2]; read-out: pEC50 (converted)): > 31.6 µM
EC50 ([3]; read-out: pEC50 (converted)): > 31.6 µM

CN1CC[C@]2(c3cccc(O)c3)Cc3nc4ccccc4cc3C[C@H]2C1
EC50 [13]: 11.1 µM
Ki [13]: 2.76 µM
EC50 ([2]; read-out: pEC50 (converted)): 0.427 µM
EC50 ([3]; read-out: EC50): 0.29 µM
EC50 (Mu-type opioid receptor): 2.11 µM
Ki (Mu-type opioid receptor): 1.56 µM
EC50 [14]: 0.961 µM
Ki [14]: 0.216 µM

COC(=O)[C@@H]1C[C@H](OC(C)=O)C(=O)[C@H]2[C@@]1(C)CC[C@H]1C(=O)O[C@H](c3ccoc3)C[C@]21C
Activity [5]: inactive

H-YGGFLRKYP-OH
EC50 [12]: 0.0556 µM

H-YGGFLRKY-OH
EC50 [12]: 0.0012 µM
EC50 ([3]; read-out: pEC50 (converted)): 4.27 µM
